# From the supplement of paper PMC12217912
# This is one part of the list. Sequences were assembled here from the parent chain. Values near 0.05 are background.
# B1: TEV protease; numbered along this chain (parent)
# chain: MGESLFKGPRDYNPISSSICHLTNESDGHTTSLYGIGFGPFIITNKHLFRRNNGTLVVQSLHGVFKVKDTTTLQQHLVDGRDMIIIRMPKDFPPFPQKLKFREPQREERICLVTTNFQTKSMSSMVSDTSCTFPSGDGIFWKHWIQTKDGQCGSPLVSTRDGFIVGIHSASNFTNTNNYFTSVPKNFMELLTNQEAQQWVSGWRLNADSVLWGGHKVFMVKPEEPFQPVKEATQL
# Variants of: B1
# Assay: raw area under fraction-flipped curve 0-4 h after induction (AUC4h, not background-subtracted), DNA-recorder readout of cleavage of the substrate (dimensionless); higher = more cleavage of the substrate by the protease variant
# Conditions: temperature: 34 °C; time window: 0-4 h after rhamnose induction
# 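Also: Bxb1 expression induced with 0.2% (w/v) L-rhamnose at OD600 near 0.5, cultures sampled hourly, flipped fraction per protease–substrate barcode pair counted by paired-end Illumina sequencing.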
Variant,area with substrate ENLYDQS,area with substrate ENLYEQS,area with substrate ENLYGQS,area with substrate ENLYHQS,area with substrate ENLYIQS,area with substrate ENLYKQS,area with substrate ENLYNQS,area with substrate ENLYPQS,area with substrate ENLYQQS,area with substrate ENLYRQS,area with substrate ENLYSQS,area with substrate ENLYVQS,area with substrate ENLYWQS,area with substrate ENLYYQS,area with substrate ENLYLQS,area with substrate ENLYMQS,area with substrate ENLYTQS
MGESLFKGPRDYNPISSSICHLTNESDGHTTSLYGIGFGPFIITNKHLFRRNNGTLVVQSLHGVFKVKDTTTLQQHLVDGRDMIIIRMPKDFPPFPQKLKFREPQREERICLVTTNFQTKSMSSMVSDTSCTFPSGDGIFWKHWIQTKDGQCGSPLVSTRDGFIVGIHSASNFTRTNNYFTSVPKNFMELLTNQEAQQWVSGWRLNADSVLWGGHKVFMVKPEEPFQPVKEATQL [N175R],0.0514,0.05,0.0531,0.0838,0.0891,0.0564,0.0826,0.0808,0.0697,0.0696,0.082,0.157,0.0806,0.0572,,,
MGESLFKGPRDYNPISSSICHLTNESDGHTTSLYGIGFGPFIITNKHLFRRNNGTLVVQSLHGVFKVKDTTTLQQHLVDGRDMIIIRMPKDFPPFPQKLKFREPQREERICLVTTNFQTKSMSSMVSVTSCTFPSGDGIFWKHWIQTKDGQCGSPLVSTRDGFIVGIHSASNFTNTNNYFTSVPKNFMELLTNQEAQQWVSGWRLNADSVLWGGHKVFMVKPEEPFQPVKEATQL [D128V],0.0856,,0.0767,0.0696,0.115,0.0457,0.0753,0.0814,,0.0763,,0.107,,0.0726,0.0788,0.127,
MGESLFKGPRDYNPISSSICHLTNESDGHTTSLYGIGFGPFIITNKHLFRRNNGTLVVQSLHGVFKVKDTTTLQQHLVDGRDMIIIRMPKDFPPFPQKLKFREPQREERICLVTTNFQTKSMSSMVSDTSCTFPSGDGIFWRHWIQTKDGQCGSPLVSTRDGFIVGIHSASNFTNTNNYFTSVPKNFMELLTNQEAQQWVSGWRLNADSVLWGGHKVFMVKPEEPFQPVKEATQL [K142R],0.0595,0.056,0.0624,0.0584,0.101,,,0.0571,,,0.0684,0.0902,,,0.0844,0.0695,
MGESLFKGPRDGNPISSSICHLTNESDGHTTSLYGIGFGPFIITNKHLFRRNNGTLVVQSLHGVFKVKDTTTLQQHLVDGRDMIIIRMPKDFPPFPQKLKFREPQREERICLVTTNFQTKSMSSMVSDTSCTFPSGDGIFWKHWIQTKDGQCGSPLVSTRDGFIVGIHSASNFTNTNNYFTSVPKNFMELLTNQEAQQWVSGWRLNADSVLWGGHKVFMVKPEEPFQPVKEATQL [Y12G],0.0538,0.0595,0.0664,0.0668,,0.0916,0.0669,0.0787,0.0659,0.0542,0.0687,0.125,0.0789,0.0616,0.0672,0.112,
MGESLFKGPRDYNPISSSICHLTNESDGHTTSLYGIGFGPFIITNKHLFRRNNGTLVVQSLHGVFKVKDTTTLQQHLVDGRDKIIIRMPKDFPPFPQKLKFREPQREERICLVTTNFQTKSMSSMVSDTSCTFPSGDGIFWKHWIQTKDGQCGSPLVSTRDGFIVGIHSASNFTNTNNYFTSVPKNFMELLTNQEAQQWVSGWRLNADSVLWGGHKVFMVKPEEPFQPVKEATQL [M83K],0.0587,0.007,0.0599,0.0485,0.146,,0.0534,0.0522,,0.0527,0.0565,0.057,0.136,,0.0575,0.057,
MGESLFKGPRDYNPISSSICHLTNESDGHTTSLYGIGFGPFIITNKHLFRRNNGTLVVQSLHGVFKVKDTTTLQQHLVDGRDMIIIRMPKDFPPFPQKLKFREPQREERICLVTTNFQTKSMSSMVSDTSCTFPSGDGIFWKHWIQTKDGQCGSPLVSTRDGFIVGIHSASNMTNTNNYFTSVPKNFMELLTNQEAQQWVSGWRLNADSVLWGGHKVFMVKPEEPFQPVKEATQL [F173M],0.0512,0.0848,0.0597,0.0527,0.182,0.0658,,0.0699,,0.0666,0.0522,0.127,,,0.0756,0.0809,
MGESLFKGPRDYNPISSSICHLTNESDGHTTSLYGIGFGPFIITNKHLFRRNNGTLVVQSLHGVFKVKDTTTLQQHLVDGRDMIIIRMPKDFPPFPQKLKFREPQREERICLVTTNFQTKSMSSMVSDTSCTFPSGDGIFWKHWIQTKDGQCGSPLVSTRDGFIAGIHSASNFTNTNNYFTSVPKNFMELLTNQEAQQWVSGWRLNADSVLWGGHKVFMVKPEEPFQPVKEATQL [V165A],0.0416,0.0582,0.064,0.05,0.0691,0.0552,0.0336,0.0665,0.0319,,0.049,0.0407,,0.0589,0.0457,0.0725,
MGESLFKGPRDYNPISSSICHLTNESDGHTTSLYGIGFGPFIITNKHLFRRNNGTLVVQSLHGVFKVKDTTTLQQHLVDGRDMIIIRMPKDFPPFPQKLKFREPQREERICLVTTNFQTKSMSSMVSDTSCTFPSGDGIFWKHWIQTKDGQCGSPLVSTRDGFIVGIHSASNFTNTNNYFTSVPKNFMELLTNQEAQQWVSGWRLNADFVLWGGHKVFMVKPEEPFQPVKEATQL [S209F],0.0604,0.0524,,0.0803,0.115,0.0704,0.066,0.0963,0.0632,0.0567,0.0885,0.0997,0.081,,0.0925,0.0993,0.0989
MGESLFKGPRDYNPISSSICHLTNESDGHTTSLYGIGFGPFIITNKHLFRRNNGTLVVQSLHGVFKVKDTTTLQQHLVDGRDMIIIRMPKDFPPFPQKLKFREPQREERICLVTTNFQTKSMSSMVSDTSCTFPSGDGIFWKHWIQTKDPQCGSPLVSTRDGFIVGIHSASNFTNTNNYFTSVPKNFMELLTNQEAQQWVSGWRLNADSVLWGGHKVFMVKPEEPFQPVKEATQL [G150P],0.0593,0.0642,0.0609,0.0588,0.0661,0.0667,0.0624,0.0621,0.0666,0.0499,0.0551,0.0445,0.0621,,0.0593,0.0619,0.0571
